PubChem BioAssay AID485294 (National Center for Advancing Translational Sciences (NCATS), 2010)
The campaign covered roughly 370,000 compounds. About 150 (0.041%) were called active. Inconclusive means that the source gave no clear call. Such entries were picked first, then a sample of the others. Calls come from the whole dose curve; as a rule, active = well fitted inhibition curve with a large enough effect; inconclusive = small, poorly fitted or top-dose-only effect; inactive = flat fitted curve, though single readings scatter. Potencies of inconclusive entries are left out as doubtful fits.

molecular target: Beta-lactamase (Escherichia coli (strain K12)) (UniProt P00811); assay: qHTS Inhibitors of AmpC Beta-Lactamase (assay with detergent); conditions: AmpC hydrolysis of nitrocefin, absorbance 480 nm, 0.01% Triton; series mostly up to 114 µM; note: nearly all actives have a fitted effect of over 25% in size
Summary of the method: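 AmpC (5.3 nM in the dispensed reagent) in 20 mM phosphate pH 7.0 with 0.01% (detergent screen) or 0.0001% Triton X-100 was preincubated with compounds for 15 min at room temperature. Nitrocefin was then added from an 800 uM solution, and hydrolysis was followed at 480 nm.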
Potency is the fitted concentration of half-maximal effect; tags give direction and shape of the fitted curve.

UniProt P00811, sequence (P00811 whole entry, looked up): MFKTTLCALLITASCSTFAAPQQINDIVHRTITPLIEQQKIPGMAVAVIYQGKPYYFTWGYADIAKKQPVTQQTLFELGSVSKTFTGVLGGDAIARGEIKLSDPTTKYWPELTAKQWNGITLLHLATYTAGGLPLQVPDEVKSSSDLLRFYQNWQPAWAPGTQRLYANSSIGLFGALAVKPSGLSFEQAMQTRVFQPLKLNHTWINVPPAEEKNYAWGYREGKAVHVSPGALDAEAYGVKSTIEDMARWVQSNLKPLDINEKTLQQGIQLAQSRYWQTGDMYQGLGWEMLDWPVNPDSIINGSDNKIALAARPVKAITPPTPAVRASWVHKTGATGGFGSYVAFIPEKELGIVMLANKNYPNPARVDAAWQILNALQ

| Compound | Potency |
| --- | --- |
| Fc1ccc(-n2nnc(-c3ccccc3)n2)cc1 | inconclusive [inhibitor, full curve, poor fit] |
| O=C(NCC(c1cccs1)N1CCOCC1)c1cc([N+](=O)[O-])cc([N+](=O)[O-])c1 (stereo not drawn) | inconclusive [inhibitor, partial curve, poor fit] |
| Cc1noc(C)c1S(=O)(=O)N1CCC(C(=O)NC2CCN(Cc3ccccc3)CC2)CC1 | inconclusive [inhibitor, full curve, poor fit] |
| Cc1ccc(C(=O)N/C(=C\c2ccc(Cl)cc2)C(=O)NC2CCCCC2)cc1 | inactive |
| O=C(NCc1cccnc1)C(=O)Nc1ccc2c(c1)OCO2 | inactive |
| CCCNC(=O)C1CCC(Cn2c(=O)c3sccc3n(CC(=O)NCc3cccc(OC)c3OC)c2=O)CC1 (stereo not drawn) | inactive |
| Cc1cc2cc(CN(C(=O)C3CC3)C3CCCC3)c3nnnn3c2cc1C | inconclusive [inhibitor, full curve] |
| COC(=O)/C=C/S(=O)(=O)c1ccc(NC(C)=O)cc1 | inconclusive [inhibitor, full curve] |
| C/C(=N\Nc1cc(N2CCOCC2)nc(C)n1)c1cccc([N+](=O)[O-])c1 | inconclusive [inhibitor, full curve, poor fit] |
| CCCCc1ccc(S(=O)(=O)Nc2nnc(C)s2)cc1 | inconclusive [inhibitor, full curve, poor fit] |
| Cc1ccc(NC(=O)c2cnc3sc(N4CCOCC4)nn3c2=O)cc1N(C)C | inactive |
| COc1ccccc1NC(=O)c1cc2ccccc2o/c1=N\O | inactive |
| COc1ccc(CNc2ccc(Br)cc2)cc1 | inactive |
| Cc1cccc(Oc2cnn(C(C)(C)C)c(=O)c2Cl)c1 | inconclusive [inhibitor, partial curve, poor fit] |
| COC(=O)c1ccn(Cc2ccccc2Cl)n1 | inactive |
| O=C(c1ccc(Cl)cc1)N1CCN(C(=O)C2CCCCC2)CC1 | inactive |
| CCOC(=O)Cn1c(=O)n(C2CCCCC2)c2nc(-c3c(F)cccc3Cl)nc(C(N)=O)c21 | inactive |
| O=C(N/N=C/c1cccc(O)c1)c1ccc(-n2cnnn2)cc1 | inconclusive [inhibitor, partial curve, poor fit] |
| COc1ccc(N=N/C(=C\O)C(=O)c2cccs2)cc1 | inconclusive [inhibitor, full curve, poor fit] |
| COc1cc(C(=O)Nc2nc(-c3ccc(C)cc3)cs2)ccc1OCC(=O)N1CCOCC1 | inconclusive [inhibitor, full curve, poor fit] |
| Cc1cccc(-n2ncc3c2CCCC3NC(=O)CCCN2CCCCC2=O)c1C (stereo not drawn) | inconclusive [inhibitor, single point] |
| O=C(Nc1ccc(F)cc1)c1cccc2c1C(=O)N(CC1CCCO1)C2 (stereo not drawn) | inconclusive [inhibitor, partial curve, poor fit] |
| COC(=O)Cn1c(=NC(=O)c2ccc(S(=O)(=O)N3CCOCC3)cc2)sc2cc(S(N)(=O)=O)ccc21 | inactive |

| Compound | Potency |
| --- | --- |
| CCCCn1c(N)c(N(CCC(C)C)C(=O)C2CCN(C(=O)c3ccccc3C)CC2)c(=O)[nH]c1=O | inconclusive [inhibitor, full curve, poor fit] |
| CNC(=S)NNC(=O)COc1cccc(C)c1C | inconclusive [inhibitor, full curve, poor fit] |
| CC1NC(C)(C)Cc2c1ccc1ccccc21 (stereo not drawn) | inactive |
| COc1cc(C(=O)Oc2cc(C)cc(C)c2)cc(OC)c1OC | inconclusive [inhibitor, partial curve, poor fit] |
| CCOC(=O)CN1C(=O)S/C(=C/c2ccco2)C1=O | inconclusive [inhibitor, single point] |
| Cc1nc2ccc(S(=O)(=O)NCC(=O)Nc3ccc(F)cc3F)cc2s1 | inactive |
| COc1ccc(NC(=S)NCCC(c2ccccc2)c2ccccc2)c(OC)c1 | inconclusive [inhibitor, partial curve] |
| Cc1ccc(S(=O)(=O)N2CCN(Cc3nc4ccc(C)cc4o3)CC2)c(C)c1 | inactive |
| O=C(NC1CCCCCC1)c1ccc2c(=O)n3c(nc2c1)CCCCC3 | inactive |
| O=C(NCc1ccco1)c1cccc2c1C(=O)N(C1CCCCC1)C2 | inconclusive [inhibitor, single point] |
| COc1ccc(N2C(=O)CC(Nc3ccc(C)cc3)C2=O)cc1 (stereo not drawn) | inconclusive [inhibitor, single point] |
| O=C(NCC1CCCO1)c1ccc(COc2ccccc2Br)cc1 (stereo not drawn) | inactive |
| Cc1cc(C(=O)Nc2sc3c(c2C#N)CCC(C)C3)no1 (stereo not drawn) | inactive |
| Nc1nn(-c2ccccc2)nc1C(=O)OCc1ccccc1 | inactive |
| c1cc(N2CCCC2)ccc1C(c1nnnn1C1CCCCC1)N1CCOCC1 (stereo not drawn) | inconclusive [inhibitor, full curve, poor fit] |
| CCc1ccc(C2CC(=O)N3CN(c4ccccc4)CSC3=C2C#N)cc1 (stereo not drawn) | inconclusive [inhibitor, partial curve, poor fit] |
| CCC(CC)NC(=O)c1nn(Cc2ccccc2)c(=O)c2ccccc12 | inconclusive [inhibitor, partial curve, poor fit] |
| Oc1ccc[n+](/C=C\c2ccccc2)c1 | inconclusive [inhibitor, single point] |
| Cc1ccc(NC(=O)CCC(=O)N/N=C/c2cc([N+](=O)[O-])ccc2O)cc1 | inconclusive [inhibitor, full curve, poor fit] |
| NC(=O)C1(N2CCCCC2)CCN(c2nc(-c3ccc(Br)cc3)cs2)CC1 | inconclusive [inhibitor, full curve, poor fit] |
| COc1ccc(/C=C2\Oc3cc(OCC(=O)N4CCC[C@H]4C(=O)O)ccc3C2=O)c(OC)c1 | inconclusive [inhibitor, full curve, poor fit] |
| COc1cccc(C2CC(C(F)(F)F)n3ncc(C(=O)NCC4CCCO4)c3N2)c1 (stereo not drawn) | inconclusive [inhibitor, full curve, poor fit] |
| Cc1ccc(CNC(=O)Cn2c(=O)c3sccc3n(Cc3cccc([N+](=O)[O-])c3)c2=O)cc1 | inconclusive [inhibitor, partial curve, poor fit] |

| Compound | Potency |
| --- | --- |
| Cc1ccc(/C=C2\SC(=S)N(CCCC(=O)Nc3cc(C)on3)C2=O)cc1 | inconclusive [inhibitor, full curve, poor fit] |
| NC(=O)c1oc2ccccc2c1NC(=O)CN1CCCCC1 | inconclusive [inhibitor, full curve, poor fit] |
| Cc1ccc(-n2c(COCC(=O)O)nc3cccnc32)cc1 | inactive |
| COc1ccc(NC(=O)CCC(=O)c2cccs2)cc1Cl | inactive |
| CS(=O)c1ccccc1-c1nc(-c2cc(C(F)(F)F)cc(C(F)(F)F)c2)no1 (stereo not drawn) | inconclusive [inhibitor, full curve] |
| Cc1ccc(NC(=O)CCC(=O)N/N=C/c2cccs2)cc1C | inconclusive [inhibitor, partial curve, poor fit] |
| O=C(Nc1ccc(Br)cc1)c1ccc2c(c1)OCO2 | inactive |
| O=C(CSCc1ccccc1)N/N=C/c1cc2c(cc1Br)OCO2 | inconclusive [inhibitor, partial curve, poor fit] |
| O=C(CN1C(=O)NC(Cc2ccccc2)C1=O)Nc1ccccc1F (stereo not drawn) | inconclusive [inhibitor, full curve, poor fit] |
| Cc1cc(SCc2cc(=O)n3ccsc3n2)nc2ccccc12 | inconclusive [inhibitor, full curve, poor fit] |
| O=C(CCc1ccccc1)NNC(=O)c1ccccc1Cl | inconclusive [inhibitor, full curve, poor fit] |
| CCCCC(=O)N/N=C/c1ccc(-c2ccc([N+](=O)[O-])cc2)o1 | inactive |
| CCCCNc1nc2ccccc2c2nc(-c3ccccc3)nn12 | inactive |
| Cc1ccc(OCC(=O)Nc2ccc(S(=O)(=O)N3CCCCC3)cc2)c([N+](=O)[O-])n1 | inconclusive [inhibitor, full curve, poor fit] |
| O=C(NCCOc1ccccc1)c1n[nH]c(=O)c2ccccc12 | inconclusive [inhibitor, full curve, poor fit] |
| Cc1ccc(S(=O)(=O)NCC2CCC(C(=O)NCCCOC(C)C)CC2)cc1 (stereo not drawn) | inconclusive [inhibitor, partial curve, poor fit] |
| O=C(O)c1cc2nc(-c3ccccc3)cc(C(F)(F)F)n2n1 | inconclusive [inhibitor, partial curve, poor fit] |
| N#CC(C#N)=c1ccc2c(c1)N1C3=C(CCCC3)CC3CCCCC31N=2 (stereo not drawn) | inactive |
| O=C(CC1(O)C(=O)N(Cc2ccccc2Cl)c2ccccc21)c1ccco1 (stereo not drawn) | inconclusive [inhibitor, single point] |
| Fc1ccccc1N1CCN(c2nccn3nc(-c4ccc(Br)cc4)cc23)CC1 | inactive |
| CCn1c(C)c(C(=O)c2ccccc2)c(C#N)c1C(=O)O | inconclusive [inhibitor, single point] |
| CCc1ccc(OC(C)C(=O)N(Cc2ccco2)C2CCS(=O)(=O)C2)cc1 (stereo not drawn) | inconclusive [inhibitor, partial curve, poor fit] |
